Test results published in the RNAGym collection of RNA variant scans (doi:10.7554/elife.90254).
Read counts are not given, so values of variants with three or more changes are uncertain.

B1: LINE1-mini (parent)
chain: GGCAGAGCUCAACACAGCGUGGCAAAGUGGCUGUGGCUAGACUGCC

Variants of: B1
Assay: self-cleavage, relative activity (ratio to wild type); higher = more cleavage; in vitro, sequencing; the parent is a self-cleaving ribozyme

Variant | self-cleavage
G2U C10G A14G G30A A41U | 0.01
G2U C10G A16G C45A | 0.01
G2U C10G C15U | 0.03
G2U C10G G17U C31U G44A | 0.01
G2U C10G G21C G29U | 0
G2U C10G G22A | 0.02
G2U C10G G29A | 0.02
G2U C10U A12G C23A G30U | 0.01
G2U C10U C13A A14U G17U G22U | 0.02
G2U C10U C13G A25U | 0.01
G2U C10U C18A U20C G21C G40A | 0
G2U C10U C23G A41U C46A | 0.02
G2U C10U G17A G27A U28C G40A | 0.01
G2U C10U G17C G35C G44A | 0.01
G2U C10U G22A G29U G35U | 0
G2U C13A A16G | 0.02
G2U C13A A26C G36C | 0.07
G2U C13A A39C C45G | 0.01
G2U C13A A39G | 0.03
G2U C13A C15G G27U | 0.01
G2U C13A C15U A26C | 0.01
G2U C13A C37A | 0.01
G2U C13A C46A | 0.02
G2U C13A C46G | 0.04

Variant | self-cleavage
G2U C13A G17C A26C C37G | 0
G2U C13A U34C G36U A39G | 0.01
G2U C13G A26U C42U | 0.01
G2U C13G C37G | 0.01
G2U C13G G19U | 0.03
G2U C13G G19U A25C | 0.03
G2U C13G G29A U34C C46U | 0.01
G2U C13G G30C | 0.04
G2U C13G G33U | 0.06
G2U C13G G33U G36U C45G | 0.01
G2U C13G U28A G30A U32A | 0.02
G2U C13U A14C U20G A26G C31G A39C | 0
G2U C13U A16C G36U U38G G44A | 0
G2U C13U A16G G17U | 0.02
G2U C13U A16U C37A | 0.02
G2U C13U A24U | 0.06
G2U C13U A25C A26U U38A G40U | 0.11
G2U C13U A25C G30U G35U A41U C45A | 0.06
G2U C13U C18G G27U | 0.01
G2U C13U C37A | 0.06
G2U C13U C37U | 0.07
G2U C13U G17A C18A | 0.02
G2U C13U G21U G33C C45A | 0.02
G2U C13U G27U C31U G44A | 0.01

Variant | self-cleavage
G2U C13U G30A | 0.04
G2U C13U G30A A39G | 0.01
G2U C13U G35C | 0.03
G2U C13U G35U U43A | 0.02
G2U C15A C37A A39U A41C | 0.06
G2U C15A G19A A24U A26U U38C | 0.01
G2U C15A G21C | 0.07
G2U C15A U34A | 0.05
G2U C15G A41C | 0.05
G2U C15G C18A G30C G44A | 0.01
G2U C15G C18U C42A C46G | 0.01
G2U C15G U34G G40U C45U | 0
G2U C15U C18A U34A C37G | 0.02
G2U C15U C18U G19U | 0.05
G2U C15U C45G | 0.11
G2U C15U G17U A41G | 0.05
G2U C15U G33U | 0.03
G2U C18A A26C | 0.06
G2U C18A G22U G40U | 0.01
G2U C18A G27U A39U C46U | 0.05
G2U C18A U32A | 0.01
G2U C18A U32G | 0.19
G2U C18G G36A G44C | 0.01
G2U C18U A24G | 0

Variant | self-cleavage
G2U C18U A26G | 0.01
G2U C18U C42U | 0.05
G2U C18U G36C U43C C45G | 0.02
G2U C23A C37U C42G | 0
G2U C23A G36C G40A | 0.02
G2U C23G G27U C46U | 0.1
G2U C23G G30A A41G U43G | 0
G2U C23G G30U G33C | 0.04
G2U C23G U32C | 0.02
G2U C23U C31A | 0.03
G2U C23U C31A G36C | 0.04
G2U C23U C31U G35C | 0.02
G2U C23U G35U C37G | 0.08
G2U C31A C37G | 0.02
G2U C31A G33A C42G | 0.04
G2U C31A G33C A41U | 0.08
G2U C31A U43A | 0.01
G2U C31G G33C | 0.03
G2U C37A G40A | 0.04
G2U C42A U43A | 0.07
G2U G5A A6G G7C C18U G19U G27A U32C | 0.03
G2U G5A A12U C13A C23A | 0.05
G2U G5A A14U U20A C31U | 0.01
G2U G5A A16U A25G U28G C46A | 0.01

Variant | self-cleavage
G2U G5A A24C | 0.04
G2U G5A A24U C31U | 0.02
G2U G5A C8U U9G G40C | 0.03
G2U G5A C10A U28C G33A A39G C42A | 0.01
G2U G5A C18A C31A A41U | 0.02
G2U G5A C23U | 0.03
G2U G5A G19A C42A | 0.08
G2U G5A G29U G36A U43C C46A | 0.16
G2U G5A G30C U38A | 0.04
G2U G5A G35U | 0.03
G2U G5A G36C | 0.05
G2U G5A G36C C46G | 0.05
G2U G5A U9G A25C G44A | 0.05
G2U G5C A6G G17U | 0.06
G2U G5C C8G U9C G30C | 0.02
G2U G5C C10A C15G G17A | 0.02
G2U G5C C10U A16C C45A | 0.01
G2U G5C C13U | 0.01
G2U G5C G7A A12C C15A | 0.01
G2U G5C G30U C45G | 0.02
G2U G5C U20C | 0.05
G2U G5C U20C C23U G27C A41U | 0.02
G2U G5C U32G A39C | 0.02
G2U G5U A6C G27U G40C A41U | 0

Variant | self-cleavage
G2U G5U A11U G44A | 0
G2U G5U A14U A39G | 0.02
G2U G5U A16U C23G C42G C45A | 0.01
G2U G5U A25C | 0.04
G2U G5U A41U | 0.01
G2U G5U C10A G22U U38A | 0.03
G2U G5U C13A C18G U32C | 0.02
G2U G5U C13A C23U | 0.02
G2U G5U C18A G44U | 0.01
G2U G5U C18U G21C G33C | 0.02
G2U G5U C23U G30U | 0.07
G2U G5U G7C C15U | 0.1
G2U G5U G7U A11G C23G G27U U38G | 0
G2U G5U G7U G22U G35C G44U | 0.06
G2U G5U G19C | 0.02
G2U G5U G27A | 0.02
G2U G7A A11G C15G U20A A41C | 0.01
G2U G7A A14C A24G U34G G44C | 0.03
G2U G7A A24G C37U U43C | 0.04
G2U G7A A39G G40C | 0.02
G2U G7A A41U | 0.09
G2U G7A C31A | 0.03
G2U G7A G30U U32C G35C | 0.13
G2U G7A G36U | 0.05

Variant | self-cleavage
G2U G7A U9A | 0.19
G2U G7A U20A G29C | 0.05
G2U G7A U34A | 0.14
G2U G7C A16U | 0.03
G2U G7C C8U | 0.07
G2U G7C C15A | 0.02
G2U G7C C15G G29A C37G | 0.11
G2U G7C C15G G44U | 0.06
G2U G7C G19U G35C A39C | 0.08
G2U G7C G21U U38A C42A | 0.04
G2U G7C G30U | 0.04
G2U G7C G40U | 0.06
G2U G7U A11G C18G U32G | 0.01
G2U G7U A39C | 0.01
G2U G7U A41G | 0.02
G2U G7U C10G A12C C18G U28A | 0.01
G2U G7U G19A G27U C45A | 0.22
G2U G7U G22C G30A | 0.02
G2U G7U G22U C45U | 0.1
G2U G7U G29U | 0.02
G2U G7U U9G C13A | 0.06
G2U G7U U43C C45G | 0.14
G2U G17A A24C G30U | 0.01
